# Measured values: the antibiotic and cytotoxicity screens of Wong et al. (2023)
# This is one part of the list.
# Tests used:
# HSkMC = human skeletal muscle cells; assay: cytotoxicity call (relative viability < 0.9); details: 10 µM
# HepG2 = assay: cytotoxicity call (relative viability < 0.9); details: 10 µM
# S. aureus RN4220 = assay: growth inhibition call (relative growth <= 0.2); details: 50 µM
Compound,cytotoxicity call (HSkMC),cytotoxicity call (HepG2),growth inhibition call (S. aureus RN4220)
CC(C)NC(=O)Nc1ccc2c(c1)C(=O)N([C@H](C)CO)C[C@H](C)[C@H](CN(C)C(=O)Nc1cccc3ccccc13)OCCCC[C@@H](C)O2,inactive,inactive,inactive
Cc1cc(C(=O)O)cc(S(N)(=O)=O)c1,inactive,active,inactive
C[C@H](CO)N1C[C@H](C)[C@H](CN(C)S(=O)(=O)c2ccccc2)Oc2ccc(NC(=O)Cn3cnnn3)cc2C1=O,inactive,inactive,inactive
CC=C1C2C=C(C)CC1(N)c1ccc(=O)[nH]c1C2 (stereo unspecified),inactive,inactive,inactive
CCCNC(=O)N1C[C@@H](C)[C@H](OC)CN(C)C(=O)c2cc(NS(=O)(=O)CC(F)(F)F)ccc2OC[C@@H]1C,inactive,inactive,inactive
COC(=O)C1=CO[C@@H](O[C@@H]2O[C@H](CO)[C@@H](O)[C@H](O)[C@H]2O)[C@@H]2[C@@H](C)[C@@H](O)[C@@H](OC(=O)/C=C/c3ccc(O)c(O)c3)[C@H]12,inactive,inactive,inactive
C=C(C)c1c2c(c(Cl)c3ccccc13)C[N+](CC)(CC)C2,inactive,inactive,inactive
C[C@H](O)C#Cc1ccc2c(c1)O[C@H](CN(C)C(=O)C1CCCCC1)[C@H](C)CN([C@H](C)CO)S2(=O)=O,inactive,inactive,inactive
COc1cccc(S(=O)(=O)Nc2ccc3c(c2)C(=O)N(C)C[C@@H](OC)[C@H](C)CN(C(=O)Cc2cccnc2)[C@H](C)CO3)c1,inactive,inactive,inactive
C[C@H]1CN([C@@H](C)CO)C(=O)c2cc(NC(=O)C3CC3)ccc2O[C@H]1CN(C)Cc1ccc(Oc2ccccc2)cc1,inactive,inactive,inactive
COc1ccc(S(=O)(=O)Nc2cccc3c2O[C@H](CN(C)Cc2ccncc2)[C@H](C)CN([C@H](C)CO)C3=O)cc1,inactive,inactive,inactive
CC(C)NC(=O)N(C)C[C@H]1Oc2ccc(NS(=O)(=O)c3ccc(F)cc3)cc2CC(=O)N([C@H](C)CO)C[C@H]1C,inactive,inactive,inactive
Cc1ncc(CO)c(CO)c1O,inactive,inactive,inactive
COc1ccc(CN(C)C[C@H]2OCCCC[C@H](C)Oc3ccc(NC(=O)Nc4ccc5c(c4)OCO5)cc3C(=O)N([C@@H](C)CO)C[C@@H]2C)cc1,inactive,active,inactive
O=C(C[C@@H]1CC[C@H]2[C@@H](COC[C@H](O)CN2Cc2cccc(C(F)(F)F)c2)O1)NCCc1ccncc1,inactive,inactive,inactive
C[C@H](CO)N1C[C@H](C)[C@H](CN(C)C(=O)Nc2ccc(C(F)(F)F)cc2)Oc2ncc(C#C[C@@H](C)O)cc2C1=O,inactive,inactive,inactive
COC(=O)c1c2oc(c1C(=O)OC)C(=O)N[C@@H](Cc1ccccc1)Cn1cc(nn1)CNC(=O)[C@H](Cc1ccccc1)NC(=O)N[C@@H](CO)CC2,inactive,inactive,inactive
C[C@H]1CN([C@@H](C)CO)C(=O)Cc2cc(NC(=O)Nc3ccc(F)cc3)ccc2O[C@@H]1CN(C)CC1CCCCC1,inactive,active,inactive
C[C@@H]1CN([C@@H](C)CO)S(=O)(=O)c2ccc(C#C[C@@H](C)O)cc2O[C@H]1CN(C)C(=O)c1ccncc1,inactive,inactive,inactive
C[C@H](CO)N1C[C@H](C)[C@H](CN(C)Cc2ccc(Oc3ccccc3)cc2)Oc2c(NC(=O)Nc3ccccc3)cccc2C1=O,inactive,inactive,inactive
C[C@H]1CN([C@@H](C)CO)C(=O)c2cc(NC(=O)CCN3CCOCC3)ccc2O[C@H]1CN(C)C(=O)NC1CCCCC1,inactive,inactive,inactive
O=C(C[C@@H]1C/C=C/CCC(=O)O[C@H](c2ccccc2)CNC1=O)NCc1ccc(Cl)c(C(F)(F)F)c1,inactive,inactive,inactive
C[C@H]1CN([C@@H](C)CO)C(=O)CCCn2cc(nn2)CO[C@@H]1CN(C)S(=O)(=O)c1ccc(C#N)cc1,inactive,inactive,inactive
C[C@H]1CN([C@@H](C)CO)C(=O)CCCn2nncc2CO[C@H]1CN(C)C(=O)Nc1ccc(N2CCN(C)CC2)cc1,inactive,inactive,inactive
C[C@H]1CCCCO[C@H](CN(C)C(=O)CCCN(C)C)[C@@H](C)CN([C@@H](C)CO)C(=O)c2cc(NC(=O)Nc3cccc4ccccc34)ccc2O1,inactive,inactive,inactive
CCC[C@@H]1C[C@@H](C(=O)N[C@@H]([C@H]2O[C@H](SC)[C@H](OP(=O)(O)O)[C@@H](O)[C@H]2O)[C@H](C)Cl)N(C)C1,inactive,inactive,inactive
CCOC(=O)N(C)C[C@@H]1OCc2cnnn2CCCC(=O)N([C@@H](C)CO)C[C@H]1C,inactive,inactive,inactive
